Data reported in the RNAGym collection of RNA variant scans (doi:10.7554/elife.90254).
Read counts are not given, so values of variants with three or more changes are uncertain.

B1: LINE1-mini (parent)
chain: GGCAGAGCUCAACACAGCGUGGCAAAGUGGCUGUGGCUAGACUGCC

Variants of: B1
Test: self-cleavage, relative activity (ratio to wild type); higher = more cleavage; in vitro, sequencing; the parent is a self-cleaving ribozyme

For GGCAGAGCUUAACGCAGCGGGGCAAAGUGGCUGUGGCUAGACUGCC [C10U A14G U20G], which self-cleavage is on record?
The self-cleavage was 0.24.

For GGCAGAGCUCAAUACCGUGUGUCAAAGUGGCUGUGGCUAGAAUGCC [C13U A16C C18U G22U C42A], which self-cleavage is on record?
The self-cleavage was 0.03.

With GUUAGAGCUCAACACAGCGUGGCAAAGGGUCUGUGGCUAGACAGCC [G2U C3U U28G G30U U43A] as the variant, how does the self-cleavage read?
Its self-cleavage is 0.08.

With GGCAGAGAUCAAAACAGCGUGGCAAUGUGGCCUUGGCUAGACUGCC [C8A C13A A26U U32C G33U] as the variant, how does the self-cleavage read?
The self-cleavage was 0.03.

For GGCAGAGCUCAGCAUAGCGUCGCAAAGUGGCUGUGGCUAGACUGCC [A12G C15U G21C], which self-cleavage is on record?
Its self-cleavage is 0.04.

Which self-cleavage does the source give for CGCAGAGCUCCACACAUAGCGCCAAAGUAGCUGUGGCUAGACUGCC [G1C A11C G17U C18A U20C G22C G29A] here?
Its self-cleavage is 0.

Which self-cleavage does the source give for GGCAGAGCUCAACAAAGCGUGGCAAAGUGGCUGUCGCGACACUGCC [C15A G35C U38G G40C] here?
Its self-cleavage is 0.09.

Which self-cleavage does the source give for GUCAGAGCUCAACACAGCGUGGCAAAGUGGCUGCGGCUACACUGCC [G2U U34C G40C] here?
The self-cleavage was 0.06.

For GGCAGAGCUCAACACAGCGUGGUAAACUGGCCCUGGCUAGACUGCC [C23U G27C U32C G33C], which self-cleavage is on record?
Its self-cleavage is 0.19.

For GGCAGAGCUCAACACAGCGCGACAAAGUGGACGCGGCUAGACUGCC [U20C G22A C31A U32C U34C], which self-cleavage is on record?
Its self-cleavage is 0.04.

With GGCAGAUCUCAACACAGCCUGGCAAAGUGGCGGGGGCUAGCCUGCC [G7U G19C U32G U34G A41C] as the variant, how does the self-cleavage read?
Its self-cleavage is 0.02.

Which self-cleavage does the source give for GGCAGAGCUCAACACAGCGUGUCAAAGCGGCUGUGUUUAGACUGCC [G22U U28C G36U C37U] here?
The self-cleavage was 0.03.

With GGAAGACCUCAACACAGCGUGGCAAAGUGGCUGUGGCUAUACUGCC [C3A G7C G40U] as the variant, how does the self-cleavage read?
Its self-cleavage is 0.07.

For GGCAGAGCUGAACAGAGUGUGGCAAAGUGGCUGUCGCUAGACUGCC [C10G C15G C18U G35C], which self-cleavage is on record?
The self-cleavage was 0.01.

With UGCAGAGCCCAACACAGCGUCUCAAAGUGGCUGUGGCUAGACUGCC [G1U U9C G21C G22U] as the variant, how does the self-cleavage read?
Its self-cleavage is 0.

Which self-cleavage does the source give for GGCAGAGCUCAACACAGCGAGGCAAAGUGGCUGUGGCGACACUGCC [U20A U38G G40C] here?
Its self-cleavage is 0.06.

With GACAGAACUCAACACAGCGUGGCGAAUUGGCUGUGGAUAGACUGCG [G2A G7A A24G G27U C37A C46G] as the variant, how does the self-cleavage read?
The self-cleavage was 0.38.

For AGCAGAGCUCAAUAAACCGUGGCAAUGUGGCUGUGGCUCGUCAACC [G1A C13U C15A G17C A26U A39C A41U U43A G44A], which self-cleavage is on record?
Its self-cleavage is 0.01.

Which self-cleavage does the source give for GGCAGAGCUCAACACCACGUGGCAAAGUGGCCGUGGCUUGACUGCC [A16C G17A U32C A39U] here?
The self-cleavage was 0.07.

Which self-cleavage does the source give for GGCAGAGAUCAACACUGCGCGGCAAAGUGGCUGUGGCUAGACUGCC [C8A A16U U20C] here?
The self-cleavage was 0.04.

For GGCACAGCUCCACCCAACGUGGCACAGUGGCUGUGGCCAGACUGCC [G5C A11C A14C G17A A25C U38C], which self-cleavage is on record?
The self-cleavage was 0.01.

With GGCAGCGCUCAAUACAGCGUGGCAACGUGGCUGUGGCUAGACUGCC [A6C C13U A26C] as the variant, how does the self-cleavage read?
The self-cleavage was 0.68.

Which self-cleavage does the source give for GACAGAGGUCAACACAGCGUGGCAAGGUGGCUGUGGCUAAACUGCC [G2A C8G A26G G40A] here?
Its self-cleavage is 0.01.

Which self-cleavage does the source give for GGCAGAACUAAACACACCGUGGCAAAGUGGCUGUCUCUAGACUGCC [G7A C10A G17C G35C G36U] here?
Its self-cleavage is 0.03.

For GGCAGAGCCCCAUACAGCGUGGCACAGGGGCUGUGGCUAUACUGCU [U9C A11C C13U A25C U28G G40U C46U], which self-cleavage is on record?
Its self-cleavage is 0.

For GGCAGAGCUGAACACAGCGUGGAUAAGUGGCUGUGGUAAGACUGCA [C10G C23A A24U C37U U38A C46A], which self-cleavage is on record?
The self-cleavage was 0.01.

With GGCAGCGCUCGACACAGCGUGGCAAAGUGGUUGUGGCUAUACUGCC [A6C A11G C31U G40U] as the variant, how does the self-cleavage read?
The self-cleavage was 0.05.

With UGCAGAGCUCAACUCAGCGUGGCAAAGUGGCUGUGGCUAGAGUGCC [G1U A14U C42G] as the variant, how does the self-cleavage read?
The self-cleavage was 0.08.

For UGCAGAGCUCACCACAGCGUGGCAAAGUUGCUGUAACUAGCCUGCC [G1U A12C G29U G35A G36A A41C], which self-cleavage is on record?
Its self-cleavage is 0.

With GACAGAGCUCAAAACAGCGUGGCAAAGUGGCUGUGACUAGACUGCC [G2A C13A G36A] as the variant, how does the self-cleavage read?
Its self-cleavage is 2.51.

With GGCUGAGAGCUACACAACGUGGCAAACUGGCUGUGGAUAGACUGCC [A4U C8A U9G A11U G17A G27C C37A] as the variant, how does the self-cleavage read?
The self-cleavage was 0.01.

With GGCACAGCUCAUCACAGAGUGGCGAAGUGGCUGUGGCUAGACUGCA [G5C A12U C18A A24G C46A] as the variant, how does the self-cleavage read?
Its self-cleavage is 0.01.

Which self-cleavage does the source give for GGCAGAGCUCAACACAGCGUGGCAAAGUGGGUGUGUCUAGACGGGC [C31G G36U U43G C45G] here?
Its self-cleavage is 0.06.

With GGCAGAGCUCCACACAGCGUGUCAAAGUGGCUGUGGCUAGACUCCC [A11C G22U G44C] as the variant, how does the self-cleavage read?
The self-cleavage was 0.02.

Which self-cleavage does the source give for GGCAGAGCUCAACACAGCGUGUCAAAGUGGCUGUGGCUGGACUCCC [G22U A39G G44C] here?
Its self-cleavage is 0.23.

For GGCAGAGCUUAACAAAGCGUGGCAAAUUGGCUGUUGCUAGACUGCC [C10U C15A G27U G35U], which self-cleavage is on record?
Its self-cleavage is 0.03.

With GGCAGAGCGGAACACAGAGUGGCAAAGUGCCUGUGGCUAGACUGCC [U9G C10G C18A G30C] as the variant, how does the self-cleavage read?
The self-cleavage was 0.01.

With GGCAGAGCUCAAUGAAGCGUGGCAAAGUGGCUGGGGCUAGACUGCC [C13U A14G C15A U34G] as the variant, how does the self-cleavage read?
Its self-cleavage is 0.03.

With GGCCAAGCUCAACACAGCGUGGCAAACUGGCUGGGGCUAGACUGCC [A4C G5A G27C U34G] as the variant, how does the self-cleavage read?
The self-cleavage was 0.14.

For GGCAGACCACAACACAGCGUGGCAAAGAGGCUGUGGCUAGCCUGCC [G7C U9A U28A A41C], which self-cleavage is on record?
The self-cleavage was 0.05.

For AGCAGAGCUCAACACAGCGUGGCAAAGUGGUGGUGGCUAGACAGCC [G1A C31U U32G U43A], which self-cleavage is on record?
The self-cleavage was 0.02.

For GGCAGAGCUAAACACAGCAUGGCAAAGUGGCUGAGGCUAGACUGCC [C10A G19A U34A], which self-cleavage is on record?
Its self-cleavage is 0.06.

For GGUAGACCUCAACACAGCUUGGCAAAGUGGCUGUGGCUAGACAGCC [C3U G7C G19U U43A], which self-cleavage is on record?
The self-cleavage was 0.15.

Which self-cleavage does the source give for GGCCGAGCUCAACAGAGCAUGGCAAAGUGGCUGUGGCUAGACUGCC [A4C C15G G19A] here?
The self-cleavage was 0.03.

For AGGAGAGCUCAACACAGCGUGGCAAAUUUGCUGUGGCUAGACUGCC [G1A C3G G27U G29U], which self-cleavage is on record?
Its self-cleavage is 0.44.

Which self-cleavage does the source give for GGCAUAGCUCAACACAGUGUGGCAAAGUGGCUGAGGCUAGACGUCC [G5U C18U U34A U43G G44U] here?
The self-cleavage was 0.

For GGCAGUGUUCAACACAGAGUGGCAAAGUGGCUGUGGCUAGACUGCC [A6U C8U C18A], which self-cleavage is on record?
Its self-cleavage is 0.06.

For GGUAUAGCUCAACACACCGAGGCAAAAUGGCUGUGGCUCGACUGCU [C3U G5U G17C U20A G27A A39C C46U], which self-cleavage is on record?
The self-cleavage was 0.04.

Which self-cleavage does the source give for GGGAGAGCGCAACACAUCGCGGGAAAGUGGCUGUGGCUAGACUGCC [C3G U9G G17U U20C C23G] here?
Its self-cleavage is 0.09.

Which self-cleavage does the source give for AGCAGAGCUAAAGACAGCGUGGCCUAGUGGCUGUGGCUAGACUGCC [G1A C10A C13G A24C A25U] here?
Its self-cleavage is 0.06.

With GGCAGCGGUCAUCACAGCGUGGCAAAGUGGCUGUGGCUGGACUGCC [A6C C8G A12U A39G] as the variant, how does the self-cleavage read?
Its self-cleavage is 0.07.

With GGCAAAUCUCAACACAGCGUGGAAAAGUGGCUGUGGCUAGAAUGCC [G5A G7U C23A C42A] as the variant, how does the self-cleavage read?
The self-cleavage was 0.06.

Which self-cleavage does the source give for GGCAGAGCUCAACACAGCGUGGCAAAGUGGAUGUCGCUAGAAUGCC [C31A G35C C42A] here?
Its self-cleavage is 0.06.

For GGCGGAGCUCAACACAGCGUGGCAAAGUGGCUUUGGCUGGAGUGCC [A4G G33U A39G C42G], which self-cleavage is on record?
Its self-cleavage is 0.12.

For GGCAGAGCUCUCCACAGCGUGGCAAAGUGGCUGUGGCUAGACUGCG [A11U A12C C46G], which self-cleavage is on record?
The self-cleavage was 0.05.

For CGCAGAGCUCAACACAGCGUGGCAAAGUGGCUGUGGCUAGACUAAC [G1C G44A C45A], which self-cleavage is on record?
The self-cleavage was 0.01.
